{"source": "patent US12109190B2", "about": "“Urolithins as immune response enhancers” (Amazentis SA, priority 2018, dated 2024)", "tested_on": "flu strains H1N1, H3N2 and Type B", "experiment": "Phase 2 clinical trial: antibody titres in response to flu vaccination after Urolithin A", "details": "elderly 65-90 yrs, four weeks intervention before vaccination; placebo anticipated 15-30%", "data": [{"smiles": "O=c1oc2cc(O)ccc2c2ccc(O)cc12", "note": "[Urolithin A]", "values": [{"measurement": "anticipated seroconversion post flu vaccination", "result": "40-60%"}]}]}
